B1: PhoQ; a variant is named by its letters at X, in order, P23837 (parent)
chain: MKKLLRLFFPLSLRVRFLLATAAVVLVLSLAYGMVALIGYSVSFDKTTFRLLRGESNLFYTLAKWENNKLHVELPENIDKQSPTMTLIYDENGQLLWAQRDVPWLMKMIQPDWLKSNGFHEIEADVNDTSLLLSGDHSIQQQLQEVREDDDDAEMTHSVAVNVYPATSRMPKLTIVVVDTIPVELKSSYMVWSWFIYVLSANLLLVIPLLWVAAWWSLRPIEALAKEVRELEEHNRELLNPATTRELTSLVRNLNRLLKSERERYDKYRTTLTDLTHSLKTPLXXLQXXLRSLRSEKMSVSDAEPVMLEQISRISQQIGYYLHRASMRGGTLLSRELHPVAPLLDNLTSALNKVYQRKGVNISLDISPEISFVGEQNDFVEVMGNVLDNACKYCLEFVEISARQTDEHLYIVVEDDGPGIPLSKREVIFDRGQRVDTLRPGQGVGLAVAREITEQYEGKIVAGESMLGGARMEVIFGRQHSAPKDE

Drawing on a collection of fitness landscapes (doi:10.1126/science.1257360), this text covers enrichment ratio for 195 variants.

The list shows a part of the results.

The test covers variants of B1. Description: enrichment ratio after two sorts for PhoP signalling (ratio (wild type AVST 3.29)); higher = more functional. The settings on record: with PhoP (E. coli).
Regarding FSVH, the enrichment ratio was no more than 0.25.
As for KIVT, the enrichment ratio is no more than 0.25.
With RPCW, the enrichment ratio is no more than 0.25.
Next, KFSD: no more than 0.25; IQYI: no more than 0.25.
Next, WQPP: no more than 0.25.
To FYHS belongs no more than 0.25; to QVRR, no more than 0.25; to TDHC, no more than 0.25.
Regarding DPGP, the enrichment ratio is no more than 0.25.
As to RGFM, the enrichment ratio was no more than 0.25.
To FKCR belongs no more than 0.25; to FLEF, no more than 0.25.
To KYFH belongs no more than 0.25; to AIFL, no more than 0.25; to ECQR, no more than 0.25.
On to IPTS, for which the enrichment ratio is no more than 0.25.
Next, FITR: no more than 0.25.
Next, FQFQ: no more than 0.25.
In the case of PTQA, the enrichment ratio was no more than 0.25.
Regarding DLAQ, the enrichment ratio is no more than 0.25.
Next, GVWD: no more than 0.25; LAQW: no more than 0.25; QIFD: no more than 0.25.
Regarding NPAI, the enrichment ratio was no more than 0.25.
To VHQS belongs no more than 0.25; to VVWW, no more than 0.25; to MEQS, no more than 0.25.
To MRSM belongs no more than 0.25.
Regarding MNLI, the enrichment ratio was determined as 6.91.
To WGTP belongs no more than 0.25; to EFLP, no more than 0.25.
Next, KAVT: no more than 0.25.
With TKGK, the enrichment ratio is no more than 0.25.
VQMK: the enrichment ratio was no more than 0.25.
QKDA: the enrichment ratio was no more than 0.25.
To DNSV belongs no more than 0.25; to DMFA, no more than 0.25; to EWVF, no more than 0.25.
As to KTCT, the enrichment ratio is no more than 0.25.
To IFRY belongs no more than 0.25.
IDYI: the enrichment ratio was no more than 0.25.
Next, AVFP: no more than 0.25; WIRW: no more than 0.25.
Regarding PRPI, the enrichment ratio is no more than 0.25.
Consider QTGT, for which the enrichment ratio came out at 7.74.
Regarding YWAR, the enrichment ratio was no more than 0.25.
Next, LRDL: no more than 0.25; SVKM: no more than 0.25; KVRI: no more than 0.25.
To RRDC belongs no more than 0.25.
For the variant LHDN, the enrichment ratio is no more than 0.25.
In the case of WVGG, the enrichment ratio is no more than 0.25.
To EKLN belongs no more than 0.25.
To YKRK belongs no more than 0.25; to WLVQ, no more than 0.25.
Next, GDAT: 2.57; DWRE: no more than 0.25; HCMY: no more than 0.25.
As for IDCK, the enrichment ratio was no more than 0.25.
As to THTT, the enrichment ratio was no more than 0.25.
In the case of GCDY, the enrichment ratio is no more than 0.25.
To VTMI belongs 3.77; to IGGC, no more than 0.25; to HNCD, no more than 0.25.
Next, NDQV: no more than 0.25; THMA: 6.15.
YGMS: the enrichment ratio amounted to 0.302.
To SKVD belongs no more than 0.25; to VKNH, no more than 0.25; to FRGG, no more than 0.25.
Next, VIQF: no more than 0.25; SMSV: 5.79; WGLP: no more than 0.25.
To PTWT belongs no more than 0.25; to SEGN, 3.18; to RRVQ, no more than 0.25.
Take ERAP: the enrichment ratio is no more than 0.25.
In the case of YQQT, the enrichment ratio was no more than 0.25.
Regarding YCQR, the enrichment ratio was no more than 0.25.
To MSMY belongs 0.871; to NIPT, no more than 0.25; to PSNG, no more than 0.25.
In the case of MRVV, the enrichment ratio was no more than 0.25.
Next, SRQI: no more than 0.25.
Next, ATGW: 7.81; RVNR: no more than 0.25.
Next, ERNG: no more than 0.25; PVAY: no more than 0.25; TYHM: no more than 0.25.
For the variant ISDQ, the enrichment ratio was no more than 0.25.
To FCRP belongs no more than 0.25; to TKVR, no more than 0.25.
Consider PEYV, for which the enrichment ratio is no more than 0.25.
With WDHG, the enrichment ratio was no more than 0.25.
To TAGC belongs 13.9; to NVRN, no more than 0.25.
To LWTM belongs 0.652.
For the variant PAQH, the enrichment ratio was no more than 0.25.
To YQVD belongs no more than 0.25; to EDTI, no more than 0.25; to TENW, no more than 0.25.
Consider VYME, for which the enrichment ratio was no more than 0.25.
As to HPIH, the enrichment ratio is no more than 0.25.
To GKVS belongs no more than 0.25; to DYGT, no more than 0.25; to HMQI, no more than 0.25.
To HRIC belongs no more than 0.25; to TNQS, 3.44; to MRSV, no more than 0.25.
To QMWM belongs no more than 0.25; to NYCQ, no more than 0.25; to RMLL, no more than 0.25.
In the case of WGNY, the enrichment ratio is no more than 0.25.
Next, TPKC: no more than 0.25; PYPV: no more than 0.25; SNKF: no more than 0.25.
Regarding FTEI, the enrichment ratio was no more than 0.25.
On to EGVW, for which the enrichment ratio is no more than 0.25.
As to QNIC, the enrichment ratio was no more than 0.25.
Next, VGDP: no more than 0.25.
To RQMR belongs no more than 0.25; to QRIT, no more than 0.25; to VPIE, no more than 0.25.
For the variant NDQF, the enrichment ratio is no more than 0.25.
Next, PRYV: no more than 0.25.
To RMQD belongs no more than 0.25.
To GDFA belongs no more than 0.25; to LSLL, 8.24; to PCQY, no more than 0.25.
Consider TVPP, for which the enrichment ratio was no more than 0.25.
To TTKL belongs no more than 0.25; to RFGG, no more than 0.25.
Regarding FMSW, the enrichment ratio was no more than 0.25.
Consider QYDW, for which the enrichment ratio was no more than 0.25.
For the variant ACMH, the enrichment ratio was 6.
To TKHF belongs no more than 0.25; to YWSE, no more than 0.25.
Next, NKRE: no more than 0.25; PDVQ: no more than 0.25; RGFP: no more than 0.25.
Next, YVWY: no more than 0.25; SIIF: 0.435; YVDP: no more than 0.25.
For AKHK, the enrichment ratio is no more than 0.25.
To SLDN belongs no more than 0.25; to RYHW, no more than 0.25.
PVRA: the enrichment ratio was no more than 0.25.
Regarding KYIY, the enrichment ratio was no more than 0.25.
Consider SGEP, for which the enrichment ratio is no more than 0.25.
To MVKW belongs no more than 0.25; to QHPY, no more than 0.25.
Next, SQYW: no more than 0.25.
For the variant KDPS, the enrichment ratio was no more than 0.25.
To PRPS belongs no more than 0.25; to YPYE, no more than 0.25; to VNGK, no more than 0.25.
As for ASCF, the enrichment ratio amounted to 9.91.
On to SPVL, for which the enrichment ratio was no more than 0.25.
Regarding VNWM, the enrichment ratio was no more than 0.25.
Regarding LVLA, the enrichment ratio is no more than 0.25.
To GCGN belongs no more than 0.25.
Next, VKFP: no more than 0.25; QTSM: 5.94; KIEM: no more than 0.25.
In the case of SVWS, the enrichment ratio is no more than 0.25.
Next, YERC: no more than 0.25.
To IFFR belongs no more than 0.25; to FMTT, no more than 0.25; to KHQC, no more than 0.25.
On to HDWA, for which the enrichment ratio was no more than 0.25.
WDMH: the enrichment ratio was no more than 0.25.
In the case of GDCP, the enrichment ratio was no more than 0.25.
As to YKLG, the enrichment ratio is no more than 0.25.
Next, NGSC: no more than 0.25.
As to CFRD, the enrichment ratio was no more than 0.25.
As for TNAF, the enrichment ratio amounted to 1.98.
To HDIW belongs no more than 0.25.
Consider SNRE, for which the enrichment ratio was no more than 0.25.
For SHIN, the enrichment ratio is no more than 0.25.
Regarding EAFL, the enrichment ratio is no more than 0.25.
Turning to RYKL, the enrichment ratio is no more than 0.25.
Take EFGF: the enrichment ratio was no more than 0.25.
Next, PDEF: no more than 0.25; QWLQ: no more than 0.25; TRYR: no more than 0.25.
Next, TAYI: 10.2.
With IYTR, the enrichment ratio is no more than 0.25.
To LVTQ belongs no more than 0.25; to IPKI, no more than 0.25.
In the case of KAGR, the enrichment ratio was no more than 0.25.
TRFQ: the enrichment ratio was no more than 0.25.
To WNWH belongs no more than 0.25.
Next, AICI: 16.9.
As to CISV, the enrichment ratio was determined as 0.57.
